Reference: PubChem BioAssay AID1476 (National Center for Advancing Translational Sciences (NCATS), 2009)
The campaign covered roughly 200,000 compounds. About 4,500 (2.2%) were called active. The inconclusive results got no clear call from the source; some entries with a clear call stand among them for comparison. Calls come from the whole dose curve; as a rule, active = well fitted inhibition curve with a large enough effect; inconclusive = small, poorly fitted or top-dose-only effect, or effect the other way; inactive = flat fitted curve, though single readings scatter. Potencies beside an inconclusive call are fits to weak or partial responses and may not hold up.

Target: Cruzipain (Trypanosoma cruzi) (UniProt P25779)
Chain of UniProt P25779 (P25779 whole entry, looked up): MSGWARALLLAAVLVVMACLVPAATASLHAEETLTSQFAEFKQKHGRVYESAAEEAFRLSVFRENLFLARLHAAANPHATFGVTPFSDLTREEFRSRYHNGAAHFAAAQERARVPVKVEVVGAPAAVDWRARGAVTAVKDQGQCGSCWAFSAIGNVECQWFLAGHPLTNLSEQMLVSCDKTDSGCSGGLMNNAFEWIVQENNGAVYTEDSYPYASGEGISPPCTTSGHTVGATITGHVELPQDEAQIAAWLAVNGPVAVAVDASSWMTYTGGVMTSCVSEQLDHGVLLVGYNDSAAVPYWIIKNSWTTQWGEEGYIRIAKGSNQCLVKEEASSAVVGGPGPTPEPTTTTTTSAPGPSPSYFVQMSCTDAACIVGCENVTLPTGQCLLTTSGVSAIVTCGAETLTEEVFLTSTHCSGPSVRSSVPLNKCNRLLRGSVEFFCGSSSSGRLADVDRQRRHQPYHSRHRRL
Assay: qHTS Assay for Promiscuous and Specific Inhibitors of Cruzain (without detergent); note: nearly all actives have a fitted effect of over 40% in size;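 for max response, negative = inhibition: plate controls were enzyme without inhibitor for no effect and buffer without enzyme for full effect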
Conditions: purified cruzain, Z-FR-AMC fluorescence, no detergent
How it was run: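 Purified cruzain at 1.5 nM, pre-incubated 15 min with compound at room temperature in 100 mM sodium acetate pH 5.5, 5 mM DTT, 0.00005% Triton X-100. Reaction started with 2 uM Z-FR-AMC; AMC fluorescence increase over 60 s gives rate.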
Potency is the fitted concentration of half-maximal effect; tags give direction and shape of the fitted curve.

SMILES	max response, negative = inhibition	Potency
CC(=O)c1ccccn1	inactive: -6.99%	–
O=C(O)c1cccc(-n2cnc3cccnc32)c1	inactive: 2.16%	–
COc1cccc(NC(=O)c2cc3c(-c4ccc(Cl)cc4)nn(C)c3s2)c1	inconclusive: 34.5% [activator]	–
COc1cc2c(cc1OC)C1(Nc3c-2c(C)nn3-c2ccccc2)C(=O)Nc2ccccc21 (stereo not given)	–	inconclusive: 39.8 µM [activator, single point]
COc1cccc(-c2nn3c(-c4cccc(C)c4)nnc3s2)c1	–	inconclusive: 31.6 µM [activator, single point]
Cc1coc2cc3oc(=O)c(CCC(=O)NCc4ccccc4Cl)c(C)c3cc12	–	inconclusive: 31.6 µM [inhibitor, single point]
C(=N\NC1=Nc2cccc3cccc1c23)/c1ccccc1	–	inconclusive: 20 µM [inhibitor, single point]
O=C(CCC(=O)N1CCN(c2ccccn2)CC1)Nc1nnc(C2CCCCC2)s1	–	inconclusive: 20 µM [activator, partial curve]
C/C(=N\NC(=O)Nc1ccccc1)c1ccccc1	–	inconclusive: 25.1 µM [inhibitor, single point]
COc1ccc(CCNc2nc3cc(OC)c(OC)cc3c3nc(-c4ccccc4)nn23)cc1OC	inactive: -1.49%	–
COC(=O)c1cc(NC(=O)c2sc3ccccc3c2Cl)cc(C(=O)OC)c1	inactive: -7.2%	–
CC1=CC(=O)C=C(C)C1=NOc1ccccc1[N+](=O)[O-]	–	inconclusive: 25.1 µM [inhibitor, partial curve]
Cc1ccc(N(C)C(=O)N2CCN(S(=O)(=O)c3c(C)cc(C)cc3C)CC2)cc1	–	inconclusive: 39.8 µM [activator, single point]
Cc1ccc(NC(=O)C2CCC(CNS(=O)(=O)c3cccc4nsnc34)CC2)c(Cl)c1 (stereo not given)	inactive: -1.23%	–
COc1ccccc1NC(=O)C(=O)NCc1ccccc1Cl	–	inconclusive: 39.8 µM [inhibitor, single point]
Cc1ccc(NC(=O)C(=O)NCc2ccc(/C=C(/C#N)C(=O)NCc3cccnc3)o2)cc1C	–	inconclusive: 39.8 µM [activator, single point]
CCOC(=O)c1c(O)[nH]c(=O)c(CC)c1C	inactive: 7.54%	–
CCc1ccccc1NC(=O)CCC(=O)OCC(=O)c1ccc(-c2ccccc2)cc1	–	active: 15.8 µM
Cc1ccc(NC(=O)Cn2cc(C(=O)C3CCCCC3)c3ccccc32)cc1	–	inconclusive: 31.6 µM [inhibitor, single point]
CCOc1ccc(-c2cc(CCCC(=O)NCCc3cc(OC)c(OC)c(OC)c3)no2)cc1	–	inconclusive: 25.1 µM [activator, partial curve]
